Laboratory results published in PubChem BioAssay AID1478 (National Center for Advancing Translational Sciences (NCATS), 2009).
The whole screen tested about 200,000 compounds, of which about 860 (0.43%) were called active. Inconclusive means that the source gave no clear call. Such entries were picked first, then a sample of the others. Calls come from the whole dose curve; as a rule, active = well fitted inhibition curve with a large enough effect; inconclusive = small, poorly fitted or top-dose-only effect; inactive = flat fitted curve, though single readings scatter. Potencies beside an inconclusive call are fits to weak or partial responses and may not hold up.

These compounds were tested against Cruzipain (Trypanosoma cruzi) (UniProt P25779) (assay: qHTS Assay for Promiscuous and Specific Inhibitors of Cruzain (with detergent)). Settings: purified cruzain, Z-FR-AMC fluorescence, 0.01% Triton.
Procedure: Cruzain (3.4.22.51) is a cysteine protease from the tropical parasite Trypanosoma cruzi. Dual qHTS experiment was performed against the NCGC compound collection in order to 1) identify novel inhibitors of the enzyme and 2) profile the compound collection for promiscuous inhibitors operating via colloidal aggregation (by performing detergent-free and detergent-containing comparison screens). Cruzain was assayed by the use of fluorogenic coumarin-based substrate Z-FR-AMC: proteolytic cleavage releases AMC, whose fluorescence is measured at 360 nm excitation and 450 nm emission. Purified cruzain was supplied by the labs of Prof. James McKerrow and Brian Shoichet, UC San Francisco.
This assay had 0.01% Triton X-100 concentration. See also releated assay "qHTS Assay for Promiscuous and Specific Inhibitors of Cruzain (without detergent)" with 0.00005% Triton X-100.
See following references for additional details:
Assay Provider: Shoichet, Brian; University of California, San Fancisco
Screening Center PI: Austin, C.P.
Screening Center: NIH Chemical Genomics Center [NCGC]
Buffer: 100 mM Sodium Acetate, pH 5.5, 5 mM DTT, Triton X-100 concentration: 0.01%.
Buffer in columns 3 and 4 as negative control (no enzyme).
Substrate solution: 2 uM final concentration of Z-FR-AMC (catalog number I-1160, Bachem) dispensed throughout the plate.
Enzyme: 1.5 nM Cruzain final concentration in columns 1, 2, 5-48. Column 1 is neutral (100% activity). Column 2 contained titration of covalent inhibitor K11777, starting concentration 1 mM, then 1:2 dilution in duplicate).
Three uL of enzyme or buffer were dispensed to 1536-well Greiner black solid bottom plates. Compounds and controls (23 nL) were transferred via Kalypsys PinTool. The plates were incubated for 15 min at room temperature, and then 1 uL of substrate solution was added to start the reaction. The plates were immediately transferred to and read 4 times every 30 seconds for 2 min on ViewLux High-throughput CCD imager (Perkin-Elmer) using 360 nm excitation and 450 nm emission fluorescence protocol. The fluorescence intensity difference between the third and the first time points (time lapse of 60 seconds) was used to compute reaction progress.
Note: nearly all actives have a fitted effect of over 40% in size.
Potency is the fitted concentration of half-maximal effect; tags give direction and shape of the fitted curve.

Chain of UniProt P25779 (P25779 whole entry, looked up): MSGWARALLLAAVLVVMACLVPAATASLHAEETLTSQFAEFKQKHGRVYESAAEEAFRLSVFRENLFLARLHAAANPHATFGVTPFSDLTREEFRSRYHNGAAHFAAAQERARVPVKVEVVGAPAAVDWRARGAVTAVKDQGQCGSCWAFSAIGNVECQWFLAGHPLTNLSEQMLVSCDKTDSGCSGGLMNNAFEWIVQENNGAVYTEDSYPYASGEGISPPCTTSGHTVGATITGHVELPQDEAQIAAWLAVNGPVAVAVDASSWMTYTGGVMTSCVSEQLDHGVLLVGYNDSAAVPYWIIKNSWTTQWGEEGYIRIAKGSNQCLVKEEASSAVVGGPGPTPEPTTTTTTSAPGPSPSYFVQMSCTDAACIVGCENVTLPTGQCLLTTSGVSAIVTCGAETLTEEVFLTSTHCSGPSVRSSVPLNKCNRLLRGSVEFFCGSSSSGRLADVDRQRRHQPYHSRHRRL

| Structure (SMILES) | Potency | max response, negative = inhibition |
| --- | --- | --- |
| O=C(N/N=C/c1ccncc1)c1cccc(NC(=O)c2ccc(Cl)cc2)c1 | active: 28.2 µM | – |
| NCC(=O)Nc1ccccc1 | – | inactive: 2.36% |
| COc1cccc2c1[C@@H]1CN(CCCCn3c(=O)[nH]c4c(sc5ncc(-c6ccccc6)nc54)c3=O)C[C@@H]1CO2 | active: 28.2 µM | – |
| O=C(CNC(=O)/C(=C/c1ccccc1)NC(=O)c1ccc(Br)cc1)OCc1ccccc1 | inconclusive: 14.1 µM [inhibitor, partial curve] | – |
| CCOC(=O)Cc1cc(=O)n(-c2nc3ccccc3s2)[nH]1 | active: 17.8 µM | – |
| Cc1ccc(-c2nc3scc(CCNC(=O)Cc4ccc(Cl)cc4)n3n2)cc1 | – | inactive: -0.355% |
| CCOC(=O)c1cc2c(=O)n3ccccc3nc2n(Cc2ccco2)c1=NC(=O)c1cccnc1 | active: 15.8 µM | – |
| COCCCNC(=S)NCCCNc1nc2cc3c(cc2cc1C#N)OCO3 | inconclusive: 22.4 µM [inhibitor, single point] | – |
| O=c1c2ccccc2nc2n1CCC2 | inconclusive: 17.8 µM [inhibitor, partial curve] | – |
| O=c1[nH]c(=S)n(Cc2ccc(F)cc2)c(O)c1/C=N/N1CCCCCC1 | inconclusive: 35.5 µM [inhibitor, single point] | – |
| Cc1ccc2c(c1)c1nnc(SCC(=O)N3CCN(c4ccc(F)cc4)CC3)nc1n2CC(=O)O | active: 28.2 µM | – |
| CCCn1c(-c2cccs2)nc2nc3ccccc3nc21 | inconclusive: 31.6 µM [inhibitor, single point] | – |
| COC(=O)N[C@@H](/C=C/c1ccccc1)C[N+](=O)[O-] | – | inactive: 3.57% |
| CCN(CC)C(=O)N[C@@H]1C[C@@H]2c3cccc4[nH]cc(c34)C[C@H]2N(C)C1 | inconclusive: 15.8 µM [inhibitor, single point] | – |
| Cc1cc(C)nc(SCC(=O)Nc2nc(-c3ccccc3)c(-c3ccccc3)o2)n1 | – | inactive: -4.27% |
| COc1ccc(N2CCN(c3oc(-c4ccco4)nc3C#N)CC2)cc1 | inconclusive: 39.8 µM [inhibitor, single point] | – |
| Cc1ccc(S(=O)(=O)NN2C(=O)c3ccccc3NC2(C)C)cc1 | inconclusive: 25.1 µM [inhibitor, single point] | – |
| CN(C)c1nc(-c2ccccc2)c2cnn(Cc3ccccc3)c2n1 | inconclusive: 25.1 µM [inhibitor, single point] | – |
| COc1ccc(-c2cc(C(F)(F)F)n3nc(C(=O)NCC45CC6CC(CC(C6)C4)C5)cc3n2)cc1 | inconclusive: 22.4 µM [inhibitor, partial curve] | – |
| O=C(OCC1CCCO1)c1ccc2c(c1)N(Cc1ccccc1Cl)C(=O)c1ccccc1S2(=O)=O (stereo unspecified) | – | inactive: 1.24% |
| CC(=O)Oc1c(/C=C(\C#N)C(N)=O)[nH]c2ccccc12 | – | inactive: -8.49% |
| Oc1ccc(C2Nc3cccc4cccc(c34)N2)c(O)c1 | inconclusive: 25.1 µM [inhibitor, single point] | – |
| CC(C)C[C@@H](CC(=O)N[C@H](CC(=O)N[C@@H]1CCCC[C@H]1C(=O)N[C@H](CC(=O)N[C@@H](CCC(=O)O)CC(=O)O)CC(C)C)C(C)C)NC(=O)[C@@H]1CNCC[C@H]1N | – | inactive: -1.21% |

| Structure (SMILES) | Potency | max response, negative = inhibition |
| --- | --- | --- |
| COc1cc(C(=S)N2CCC(C)CC2)ccc1O | inconclusive: 12.6 µM [inhibitor, partial curve] | – |
| CCCNC(=O)Cn1c(=O)n(CC2CCC(C(=O)NC)CC2)c(=O)c2sccc21 (stereo unspecified) | – | inactive: -0.937% |
| O=S(=O)(NCCc1cn2ccccc2n1)c1ccc(F)c(C(F)(F)F)c1 | active: 25.1 µM | – |
| COc1cc2c(cc1OC)C(C(C)C)=NC(C)(C)C2 | inconclusive: 39.8 µM [inhibitor, single point] | – |
| CN1/C(=C\C(=O)COC(=O)CNC(=O)c2ccccc2F)C(C)(C)c2ccccc21 | active: 22.4 µM | – |
| COC(=O)c1cc2occc2n1Cc1nc(-c2ccccc2)oc1C | – | inactive: -1.15% |
| Cc1ccccc1Oc1nc2c(c(=O)n(C)c(=O)n2C)n1Cc1ccc(Br)cc1 | inconclusive: 35.5 µM [inhibitor, single point] | – |
| CC1(C)CC(=O)c2c(oc3cc(O)c(O)cc23)C1 | inconclusive: 25.1 µM [inhibitor, single point] | – |
| CC(NC(=O)CSc1n[nH]c(-c2ccccc2)n1)c1nc2ccccc2n1C (stereo unspecified) | – | inactive: 4.57% |
| O=C(NC(=S)Nc1ccc(N2CCCCC2)c(Cl)c1)c1ccc2c(c1)OCCO2 | – | inactive: -0.941% |
| COc1cccc(NC(=O)C2CCN(S(=O)(=O)c3cc(-c4noc(C)n4)ccc3C)CC2)c1 | – | inactive: -1.2% |
| Cn1c2ccc(F)cc2c2nnc(SCCN3CCCCC3)nc21 | active: 14.1 µM | – |
| O=C(Nc1ccc2nc(-c3ccco3)c(-c3ccco3)nc2c1)NC1CC1 | active: 8.91 µM | – |
| C=CCn1c(N)cc(=O)nc1SCC(=O)Nc1ccc2ccccc2c1 | inconclusive: 31.6 µM [inhibitor, single point] | – |
| Cc1ccc(N=C2NC(=O)S/C2=C\c2ccco2)cc1 | inconclusive: 17.8 µM [inhibitor, single point] | – |
| Cc1nn(-c2ccccc2)c(N2CCCC2)c1/C=N/NC(=S)Nc1cc(C(F)(F)F)ccc1Cl | – | inactive: -3.91% |
| COc1ccccc1-c1cncnc1NCc1cnc(C)cn1 | – | inactive: 8.04% |
| Cc1cccc(CN2C(=O)c3ccccc3S(=O)(=O)c3ccc(C(=O)N4CCN(c5cc(C)ccc5C)CC4)cc32)c1 | – | inactive: 1.17% |
| COc1cc(/C=N/NC(N)=S)cc(Br)c1OCc1ccccc1F | active: 0.562 µM | – |
| COCCNC(=O)c1c(N)n(-c2cccc(C)c2)c2nc3ccccc3nc12 | inconclusive: 28.2 µM [inhibitor, single point] | – |
| Nc1c(C(=O)NCCC2=CCCCC2)sc2ccc(S(=O)(=O)N3CCCCC3)cc12 | active: 3.55 µM | – |
| CN=C(NC#N)NCCSCc1csc(N=C(N)N)n1 | inconclusive: 35.5 µM [inhibitor, partial curve] | – |
| Cc1cccc(NC(=S)NC(NC(=O)OCc2ccccc2)C(Cl)(Cl)Cl)c1 (stereo unspecified) | inconclusive: 0.708 µM [inhibitor, full curve] | – |
